Drawing on patent publication US20250333528A1 (DENALI THERAPEUTICS, published 2025), this text covers Kd for four molecules.

Like-named read-outs stand apart in the source and are kept apart here.

What all share (experiment): SPR (Biacore 8K), VHH-Fc captured, TfR apical domain as analyte
In general terms: Surface plasmon resonance follows binding to a sensor surface in real time, without labels.

For assay [1], the target named is T1, cynomolgus transferrin receptor apical domain (cynomolgus, UniProt A0A2K5X958 198-378).
T1 construct: domain: apical domain; Soluble analyte in SPR; also called cyTfR-AD; cyno TfR apical domain
T1 sequence (A0A2K5X958 entry or part of it): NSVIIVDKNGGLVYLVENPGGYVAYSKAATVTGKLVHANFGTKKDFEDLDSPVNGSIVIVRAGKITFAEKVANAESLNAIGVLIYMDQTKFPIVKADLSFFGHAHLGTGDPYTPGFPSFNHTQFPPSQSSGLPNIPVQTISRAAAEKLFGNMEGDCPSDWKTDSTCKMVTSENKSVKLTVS
As for the experimental part: (§1) A set of experiments was performed to assess the binding affinities of VHH-Fc fusions for human and cyno TfR apical domain. In these experiments, binding affinities were determined by surface plasmon resonance using a Biacore™ 8K instrument in 1×HBS-EP+running buffer (GE Healthcare Cat. No. BR100669). Biacore™ Series S CM5 sensor chips were treated with a Human antibody capture kit (GE Healthcare, Cat. No. BR100839). VHH-Fc fusions were captured on each flow cell and serial 3-fold dilutions of human and cyno TfR apical domain (300, 100, 33, 11, 3.7, and 0 nM) were injected at a flow rate of 30 μL/min using the multi cycle kinetics method. Each sample was analyzed with a 270-second association and a 10-minute dissociation. Some VHH-Fc fusions were measured with serial 3-fold dilutions of human and cyno TfR apical domain (100, 33, 11, and 0 nM) with a 300-second association and 10-minute dissociation. After each cycle, the chip was regenerated using 3 M magnesium chloride for 30 seconds at 50 μL/minute. Binding response was corrected by subtracting the RU from a reference flow cell. A 1:1 Langmuir model of simultaneous fitting of kₒₙ and koff was used for kinetics analysis using Biacore™ 8K Evaluation Software.

Assay [2] deals with T2, human transferrin receptor apical domain (human, UniProt P02786 198-378, limits assumed).
T2 construct: domain: apical domain; Soluble analyte in SPR; also called huTfR-AD; human TfR apical domain
As for the experimental part: as §1

For assay [3], the target named is T1, cynomolgus transferrin receptor apical …. The procedure:
as §1
The source holds these as a separate data set.

Assay [4] deals with T2, human transferrin receptor apical domain. As for the experimental part: as §1
T2 sequence (P02786 198-378 limits assumed): as the sequence (A0A2K5X958 entry or part of it) above, with G11R, D50Y, S51T, K95N, D97E, Q128R, K167R, N173S, S175N counted along it
The source holds these as a separate data set.

Assay [5] addresses T1, cynomolgus transferrin receptor apical …. The procedure: as §1
(§2) The variable domains containing the mutation were sub-cloned onto the corresponding constant heavy domains of human IgG1. The heavy chain plasmids were transfected in Expi293 cells. Supernatants were collected after five days and monoclonal antibodies were purified by protein A chromatography. In order to assess affinities of the B07 mutants for human and cyno TfR apical domain, binding affinities were determined by surface plasmon resonance using a Biacore™ 8K instrument as described herein.
The source holds these as a separate data set.

The target of assay [6] is T2, human transferrin receptor apical domain. As for the experimental part:
as §1, §2
The source holds these as a separate data set.

The target of assay [7] is T1, cynomolgus transferrin receptor apical …. The procedure: as §1
This is another data set of the same source.

The target of assay [8] is T2, human transferrin receptor apical domain. The procedure:
as §1
The source holds these as a separate data set.

B1: D10 VHH-Fc (Fc fusion)
chain: QLQLVESGGGLVKTGGSLRLSCTDSGRDYNHFQRAWFRQAPGKEREFVARITWSGTITYNESVKGRFTISGDDASNTIHLQMNSLKSDDTAIYYCALKTQPPLSQDAGDYTYWGQGTQVTVSSAS[sequence of human IgG1 Fc with changes omitted]
For B1, the Kd (usually the constant that tells how readily two partners part at equilibrium) in assay [1] was 285 nM; in assay [2], 64.1 nM.

B2: B07 VHH-Fc (Fc fusion)
chain: QVQLVESGGGLVQTGGSLRLSCTASGLTSDTGGMGWFRQAAGKERDFVSAITWSGRHTLYADSVKGRFNISRDKGKNTVFLQMNSLKPEDTAVYYCALDVVGIGIEVQTYDYWGQGTQVTVSSGGGGAS[sequence of human IgG1 Fc with changes omitted]
notes: Llama VHH fused to human IgG1 Fc; also called WT B07
Turning to B2, the dissociation constant Kd in assay [3] came to 2 nM; in assay [4], 0.8 nM; in assay [1], 3.13 nM; in assay [2] it was 1.04 nM; in assay [5], 2 nM; in assay [6] it was 0.8 nM. For the same molecule, the results for the Kd in assay [7] and in assay [8] were 2.2 nM and 0.9 nM, respectively.

B3: E06 VHH-Fc (Fc fusion)
chain: QLQLVESGGGLVQPGGSLRLSCAGSGRSLSTYVMGWFRQAPGKERELVAARNGMSTYYTDSVKDRSAISRDNAKNTVYLEMNSLEPEDTAVYYCAGDRSWSRLLRGEYEYWGQGTQVTVSSAS[sequence of human IgG1 Fc with changes omitted]
Regarding B3, the Kd in assay [1] was determined as 1340 nM; in assay [2], 320 nM.

B4: B02 VHH-Fc (Fc fusion)
chain: QVQLVESGGGLVQAGGSLRLSCAASESAFSLNAIGWYRQAPGNQRELVAGIGTDGITTYYADFVKDRFTISRDNVKNTVYLQMNSLKPEDTAVYYCNAGSWRTVLSGTHVSRSWGPGTQVTVSSAS[sequence of human IgG1 Fc with changes omitted]
For B4, the figures for the dissociation constant (Kd) in assay [1] and in assay [2] were 2500 nM and 985 nM, respectively.
